Data published in patent US20230303698A1 (HARBOUR BIOMED SHANGHAI, published 2023).

Target: T1, human 4-1BB (human, UniProt Q07011 24-255)
T1 construct: whole, on cells; Expressed on CHO-K1/hu 4-1BB cells (GenScript, M00538); also called CD137; TNFRSF9
Experiment: flow cytometry, CHO-K1/hu 4-1BB cells (refers back to FIG. 3 (D))

T1 sequence (Q07011 24-255): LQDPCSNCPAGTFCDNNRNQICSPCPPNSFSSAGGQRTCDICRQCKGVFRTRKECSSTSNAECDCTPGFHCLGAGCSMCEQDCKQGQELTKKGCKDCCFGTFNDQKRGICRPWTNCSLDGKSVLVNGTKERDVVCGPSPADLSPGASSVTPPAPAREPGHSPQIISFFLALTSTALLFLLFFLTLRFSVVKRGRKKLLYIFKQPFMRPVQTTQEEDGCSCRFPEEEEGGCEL

B1: PR004278 (bispecific antibody, human IgG1, kappa)
light: EIVMTQSPATLSVSPGERATLSCRASQSISSNLGWYQQKPGQAPRLLIYGASTRATGIPARFSGSGSGTEFTLTISSLQSEDFAVYYCQQYQSWPPLTFGGGTKVEIKRTVAAPSVFIFPPSDEQLKSGTASVVCLLNNFYPREAKVQWKVDNALQSGNSQESVTEQDSKDSTYSLSSTLTLSKADYEKHKVYACEVTHQGLSSPVTKSFNRGEC
heavy: EVQLVESGGGVVQPGGSLRLSCAASGFTFSNYAMTWVRQAPEKGLEWVSSISGSGVSTYYADSVKGRFTISRDNSKNTLYLQMTRLTAEDTAVYFCAKEGSSETDDHYYNVDVWGQGTTVTVSSGGGGSGGGGSGGGGSQVQLVESGGGVVQPGRSLRLSCAASGFTFRSFGMHWVRQAPGKGLEWVAVISYDASNEYYADSVKGRFIISRDNSKDTLYLQMNSLRAGDTAVYYCAKGGGLRWYFAYWGQGTLVTVSSASTKGPSVFPLAPSSKSTSGGTAALGCLVKDYFPEPVTVSWNSGALTSGVHTFPAVLQSSGLYSLSSVVTVPSSSLGTQTYICNVNHKPSNTKVDKKV[letters of human IgG1 Fc with changes not shown]
notes: Structure 7, VH-IgG tetravalent symmetric; 4-1BB VH from PR001760 at the N-terminus of the heavy chain of the B7H4 IgG PR002408; linker GS_15; human IgG1 (LALA); also called B7H4×4-1BB molecule with the VH-IgG structure
B1: binds.
